# US8268778B2, “Flavivirus NS5A proteins for the treatment of HIV” (priority 2007, dated 2012)
# Tested on: HIV-1 isolate (X4)
# Format: cell-based
# Conditions: unmodified synthetic 16mer peptides added to cells (cell line not stated) 24 hrs prior to HIV infection, up to 50 ug/mL; data not shown
sequence,measurement,value
VDGIPVEWDADARAPA [S158E],HIV replication,Neither peptide inhibited HIV replication
